{
  "source": "patent EP4537852A1",
  "about": "“HER2-GST-SN-38 COMPLEX, AND PHARMACEUTICAL COMPOSITION COMPRISING SAME FOR PREVENTING OR TREATING PROLIFERATIVE DISEASES” (priority 2022, dated 2023)",
  "key": {"[1]": {"assay": "Body weight and clinical symptoms in xenograft mouse model", "format": "in vivo", "conditions": "3, 6, 12 mg/kg based on SN-38, IV once every three days for 21 days", "description": "(§1) Specifically, for the anticancer efficacy test, 6-week-old NIG mice (NOD/SCID, GH Bio Co., Ltd.) were purchased and bred in an environment of free access to feed and water, acclimated for more than 10 days, and then transplanted with tumor cells. As the tumor cells, HER2-positive gastric cancer MKN45 cells were subcutaneously administered at a dose of 5×10^6 cells/100 µL onto a fixed site on the left flank. After 1 week, a tumor was measured until the start of test substance administration, and individuals having tumors reached a size of about 150 mm^3 were selected and randomly distributed to each test group. Then, administration began.\nThe test group was divided into a PBS-administered control group and KMD111-administered groups at 3 mg/kg, 6 mg/kg, and 12 mg/kg based on SN-38, having three mice per group. Intravenous injection (IV) was performed once every three days for 21 days, a total of eight times. Then, the tumor size and body weight were measured from Day 11 after the cancer cell transplantation (Day 0) to the end date (for 32 days). The tumor size, relative tumor volume (RTV), and tumor growth inhibition % (TGI %) were calculated according to the following equations, by measuring a long axis length and a short axis length of the tumor. Tumor size((mm))^3 = (length×width^2)/2, (L:longaxis,W:shortaxis) [formula] RTV = (tumorsizeonfinalday)/(tumorsizeoninitialday) [formula] […]"}, "MKN45 tumor": {"test_system": "MKN45 tumor", "assay": "In vivo anticancer efficacy in xenograft mouse model", "conditions": "for tumor growth inhibition % (TGI %): compared to PBS-administered control group", "description": "To confirm the anticancer effect of the KMD111 against target tumor cells, tests were performed in an in vivo environment using a mouse animal model transplanted with a human gastric cancer cell line MKN45.\nas §1\nThe test group was divided into a PBS-administered control group and KMD111-administered groups at 3 mg/kg, 6 mg/kg, and 12 mg/kg based on SN-38, having three mice per group. Intravenous injection (IV) was performed once every three days for 21 days, a total of eight times. Then, the tumor size and body weight were measured from Day 11 after the cancer cell transplantation (Day 0) to the end date (for 32 days). The tumor size, relative tumor volume (RTV), and tumor growth inhibition % (TGI %) were calculated according to the following equations, by measuring a long axis length and a short axis length of the tumor. Tumor size((mm))^3 = (length×width^2)/2, (L:longaxis,W:shortaxis) [formula] RTV = (tumorsizeonfinalday)/(tumorsizeoninitialday) [formula] [formula]"}, "NCI-N87": {"test_system": "NCI-N87", "assay": "Cytotoxicity on target cells (CCK-8 cell viability)", "format": "cell-based, human", "conditions": "gastric cancer cell line; 72 hours; 3.1 to 200 ng/mL on the basis of SN-38; FIG. 3", "description": "(§2) Cells used in the experiment were human breast cancer cell lines SKBR3 and MDA-MB231 and human gastric cancer cell lines NCI-N87 and MKN4 purchased from the Korean Cell Line Bank. An RPMI-1640 medium (Thermo fisher scientific, USA) supplemented with 10 % fetal bovine serum (FBS, Hyclone, Logan, UT, USA) and 1 % stereptomycin-peniciline (Invitrogen, Carlsbad, CA, USA) was used and cultured in a 5 % CO2 incubator at 37 °C. Cells used in each experiment were subcultured when the cells reached a confluency of about 80 % to 90 %.\n(§3) Specifically, MDA-MB231 cells of a HER2-negative human breast cancer cell line as a normal control group, SK-BR3 cells of a breast cancer cell line that overexpresses a receptor recognized by HER2 Afb, and gastric cancer cell lines NCI-N87 and MKN-45 were seeded in a 96-well plate at a density of 1×10^4 cells/well, cultured for 24 hours, treated with KMD111 at different concentrations, and then, cultured for 72 hours. On the basis of the concentration of SN-38, the cells were treated at concentrations of 3.1, 6.2, 12.5, 25, 50, 100, and 200 ng/mL, respectively. After treated 96 wells with 10 µL of cck-8 (Dojindo, Japan) on the cultured plate, the cells were cultured for 1 hour. Here, a highly water-soluble tetrazolium salt, WST-8, is reduced by the dehydrogenase activity of the cells, and produces yellow formazan dyes that dissolve in a tissue culture medium. In this regard, the measured absorbance value is proportional to the number of viable cells. The absorbance at 450 nm was measured by using a microplate reader (Multiskan SkyHigh Microplate Spectrophotometer, Thermo fisher scientific, USA) to indicate cell viability compared to the control group, and the results are shown in FIG. 3."}, "SKBR3 cells": {"test_system": "SKBR3 cells", "assay": "Cytotoxicity on target cells (CCK-8 cell viability)", "format": "cell-based, human", "conditions": "HER2-positive breast cancer cell line; 72 hours; 3.1 to 200 ng/mL on the basis of SN-38; FIG. 3", "description": "as §2, §3"}, "MDA-MB231 cells": {"test_system": "MDA-MB231 cells", "assay": "Cytotoxicity on target cells (CCK-8 cell viability)", "format": "cell-based, human", "conditions": "HER2-negative breast cancer cell line; 72 hours; 3.1 to 200 ng/mL on the basis of SN-38; FIG. 3", "description": "as §2, §3"}},
  "data": [
    {"molecule": "KMD111 (conjugate) MAEKPKLHYFNARGRMESTRWLLAAAGVEFEEKFIKSAEDLDKLRNDGYLMFQQVPMVEIDGMKLVQTRAILNYIASKYNLYGKDIKERALIDMYIEGIADLGEMILLLPVCPPEEKDAKLALIKEKIKNRYFPAFEKVLKSHGQDYLVGNKLSRADIHLVELLYYVEELDSSLISSFPLLKALKTRISNLPTVKKFLQPGSPRKPPMDEKSLEEARKIFRFSGGGSGGGSGGGSGGGSGGGSGGGVDNKFNKEMRNAYWEIALLPNLNNQQKRAFIRSLYDDPSQSANLLAEAKKLNDAQAPK", "values": [
      {"measurement": "clinical symptoms", "setting": "[1]", "value": "no special clinical symptoms were observed"},
      {"measurement": "body weight", "setting": "[1]; FIG. 4", "value": "weight loss was observed"},
      {"measurement": "tumor growth inhibition % (TGI %)", "setting": "MKN45 tumor; 3 mg/kg based on SN-38, IV once every three days for 21 days", "value": 79.5, "unit": "%"},
      {"measurement": "tumor growth inhibition % (TGI %)", "setting": "MKN45 tumor; 6 mg/kg based on SN-38, IV once every three days for 21 days", "value": 83.5, "unit": "%"},
      {"measurement": "tumor growth inhibition % (TGI %)", "setting": "MKN45 tumor; 12 mg/kg based on SN-38, IV once every three days for 21 days", "value": 92.5, "unit": "%"},
      {"measurement": "tumor size", "setting": "MKN45 tumor; 3, 6, 12 mg/kg based on SN-38, IV, compared to the PBS-administered group, FIG. 5", "value": "significant reduction in tumor size in a concentration-dependent manner"},
      {"measurement": "apoptosis efficacy", "setting": "NCI-N87", "value": "≥ 70", "unit": "%"},
      {"measurement": "apoptosis efficacy", "setting": "SKBR3 cells", "value": "≥ 80", "unit": "%"},
      {"measurement": "cytotoxicity", "setting": "MDA-MB231 cells", "value": "less than 30%"}
    ]}
  ]
}
